Measured values as given in PMC10726135.
Some of the results follow. At the low end of the ranking the order means little. The protein was read in a cell extract, so binding may be indirect.

What follows are sequences tested against T1, HNF4alpha2 (COS-7 nuclear extract) (UniProt P41235) (assay: protein-binding microarray). Conditions: COS-7 nuclear extract on double-stranded Agilent 4x180k PBM; binding buffer, salt, pH and temperature not given; high values mean tight binding; double strand, one strand shown; sequences stand for … in …GCCTAGGGAGATTAGAGTATCGGTCGA.
T1 sequence: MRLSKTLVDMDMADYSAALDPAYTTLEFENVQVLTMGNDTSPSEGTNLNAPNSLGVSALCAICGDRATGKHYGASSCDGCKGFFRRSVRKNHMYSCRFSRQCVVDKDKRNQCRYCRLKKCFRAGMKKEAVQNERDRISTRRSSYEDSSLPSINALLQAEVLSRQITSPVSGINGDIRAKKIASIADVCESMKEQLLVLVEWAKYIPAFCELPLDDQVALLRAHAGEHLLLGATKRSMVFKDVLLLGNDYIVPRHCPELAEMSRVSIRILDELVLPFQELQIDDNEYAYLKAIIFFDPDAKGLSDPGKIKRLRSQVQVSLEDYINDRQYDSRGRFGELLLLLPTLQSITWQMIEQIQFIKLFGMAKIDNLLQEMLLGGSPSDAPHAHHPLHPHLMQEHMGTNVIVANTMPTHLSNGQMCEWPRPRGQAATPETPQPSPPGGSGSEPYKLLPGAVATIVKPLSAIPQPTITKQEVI

| Sequence | binding signal (log2 normalized intensity) |
| --- | --- |
| TCTGAAGGGAGGGCCAAGCCCTCCATCCAA | -1.06 |
| TAGAGGAGCCAGAGGGGCCAGGAACGTCAC | -1.14 |
| CTGGGACTTCAAAGCGCAGCGCGGGGCTCA | -1.26 |
| CGTAAGGGTCTGACCTGGCTGCTTGCCATG | -0.721 |
| GTGTTCCCACAGTGCCCTCTATTGGCTGTT | 2.26 |
| CCAGCTAGAAGCAGTGGGACAAAGGTCACA | 6.15 |
| TTCACTCCCCTGACAGCATGTTCGGCTGAG | 1.64 |
| TGGTATTTAAGGTCACATGCCTAGGTAAGC | 0.0916 |
| CCCTGCAATTTGATTTGTATGATCTTGGGT | 1.89 |
| GAGGAACAGGTGGGGGTAAACATAGCAGAA | -1.14 |
| GGCAATTTCCCTGGTCGACCTCCCCGTCAC | 2.62 |
| CCCTGAGTAGTTCTTCTGGTTAGTTTTTCA | 1.22 |
| ACCGCCATAACTCAGCGGGAGGCAAGATAA | -1.07 |
| CACCTCTTCCAGAGTTCAGAGGAACTTTAT | 0.543 |
| GACCTTAGTACTCTGCCATGTGCTATTCTG | 2.37 |
| TGAGATAGGAGGTCAGCACAAGATACAGCT | -1.11 |
| GGAGAGAAAAGCAAGATTGGGAGCTGGGAG | -1.1 |
| GTTCCTGCCTGGAGCCACTGAAGTGAGTTA | -0.826 |
| TAAAGCAGAGGGCTGCTTGCAGGAGGCCGG | -1.21 |
| GTGACCCGTGACCCTCAGGAACCAAGCATT | 1.53 |
| TTTCAGTGCCCTCATAAGAGACTTTGCCCT | 6.34 |
| GTAGCTTCAAACCAGTTATTCCAAGATCCA | -1.24 |
| TTTCTCCTCTCTGGGCTTCCATTGTGATTC | 1.02 |
| GGAGGTTATCTTGGGGCTAATGTCTCTCTG | 1.01 |
| TGTTTATCTTACAGGCTTATACGTGGAAGA | 1.46 |

| Sequence | binding signal (log2 normalized intensity) |
| --- | --- |
| GGGTCAAAGCCCAGGAGAGCAAAAAGGGCC | -1.13 |
| GTGTTTATAAAGTTGGGAAAAGTAACACAG | 0.914 |
| TCATGGGCCAAAGTTTGTTTCTTATCACAC | 1.6 |
| TTCAGTCTAAATGATGGCCAGGGAGTACAC | 1.28 |
| CCGGACTCTGCCCCACAATTCTTGGATCTC | 1.5 |
| GGAATCCTCCTAAGTAGCCAAGATTACAGC | -1.17 |
| CTCTCCCCAGTTCAAAGGTTAAGACTTTGA | 4.74 |
| GACCCTGGCCGGAAACTCCGCCCCATTGTC | 2.06 |
| GCAGGTAGGGGTGGGATGGGGAGCAGTGGG | -1.19 |
| ATTAACCTTTGAGCTGGGTGGCCCTCTCCC | 2.92 |
| CCCTCAGCAAACCTTCTGGCAGTGGGAGTA | -0.388 |
| AGGGGCAGGGTTCACATAGCCACCAGGGCC | -1.12 |
| GTGAATAGCACTGACCAGCTCCAAAGTCCG | 2.89 |
| TTGGACATGTAACTGCTATTGGTTGTCAGA | 1.71 |
| CTGTCCATCTTTTGCCCCTCTTATGCCCCT | 5.39 |
| AGAACCTTGGAGGCGGCGGCTCCGGGAGCT | -1.1 |
| GGGGGACTTCAAAAGCCGGGGAAAGGGAAA | -1.16 |
| TTCGGGAGACATGTGGCCTTTGGTACAGGG | 2.63 |
| TATTTGGATAATGTGCCCTTTGTACCTGGG | 7.01 |
| CTGGGTTCCAAAAGGCACATAGATTCCCAG | -1.2 |
| AGAGGGTTAACCCCTATTAACCAAAGCTAC | -1.03 |
| GTGACTCTAGGAACCTTTCTCCATACCTCT | -0.999 |
| CTCTTTCTAGGTCACCACCTTTTTTGGCCT | 1.97 |
| CCAGTCAGAATCTCTCTGTAGGTAAAGACT | -1.05 |
| CCTTGTTGCCCACCCCCCAAGTAGAGAGCA | 4.85 |

| Sequence | binding signal (log2 normalized intensity) |
| --- | --- |
| AATAATAGTTGACCTTTGAGAACCTCCCAT | 4.08 |
| ATGCCTCACCTGGCAAGGCAGCCTCAGCCA | -0.986 |
| TCTAGAGTCTGACTACTTCTCACCACCTCT | -1.15 |
| GTGTGCAATTAGAGCAAAGGTTACTGCAGA | 2.62 |
| GTCAAAGGGTACAAATTCCAGAGAGGGGCC | 0.929 |
| ACAGGGTGTGGCTTCCAAGGGGAATGTGGA | -0.683 |
| TCTTTTTAATCAATAATCTTTGCCCTTGAA | 2.63 |
| GAGTCCAGTGAACAAAACATGGATTTTGGA | 1.62 |
| ACCAAGCAAGCCAGTCAGAATCTCTCTGTA | -1.09 |
| CTTTGGCTGCAAAATTTGAACAAAAAAAGA | -1.15 |
| GCAAAGGTCAGCTCATTCCCTAGGGCTCGG | -0.876 |
| GGCCAGTTTGATCACAAGACATGAAGATGC | -0.708 |
| CGAGCTTCACCTTTGTCCTCTCTCCCACAA | 2.99 |
| CTCAAAGTCTAACCCAACTAAGAACACAGT | -0.363 |
| GAAAGGAGAAGCTGGAGATAAGGATAGAGG | -1.2 |
| TTTATGACCTTTGACTGCAGAAGATAAGAA | 3.94 |
| TTGAAGATAATCACCCGATAAGCTGACCCC | 5.46 |
| TAGAGCTTTTGAGGGTGACCGATCGTTATT | 1.6 |
| TCAACATCAAAGGCCTTCCTATCTCTACTT | -1.18 |
| CGCCTGCAGAAACTTTCTTTTTGTTGTTAG | 1.52 |
| CCCATCCCCAACAAAGCTCTGCATCCTTCC | 1.39 |
| CCTTGTCTAAGCCCTTATCAAAAAGATAAG | -1.11 |
| ACTTCATTCAGGTAGCAGGCCTCAGAGATA | 0.375 |
| TGTGCCCTCGGGTCCCACACACCTCAAATG | -1.08 |
| TTGTTCTATTAACCTGGCCAAACACCAAAT | 0.25 |

| Sequence | binding signal (log2 normalized intensity) |
| --- | --- |
| GCGGTGCCATTCACAGGAATGTTGGCAGCA | -1.04 |
| TGAGGAAGGCTCTTTGTTCAGAGGGCATGT | 1.95 |
| AAGAAGTCCAAGGACTTATCCTTGGGACAT | -1.12 |
| GGTCAGCAATGGTAATTACCTTCTAGTGGT | 0.405 |
| GAGGTCAAGATAAGATACGAAGGGTTTAAA | -0.603 |
| CTATGTCCTTATCCTCATTGTGTGCAGACC | 1.99 |
| GCATACAAAACAACCACTCTTATCAGACAG | -1.07 |
| AGCAAACCTGTCTCTCTGCATTCCTCCTGG | -0.27 |
| ATACTATATTTGTCCCACATTAACTGTGCT | -0.987 |
| ATTGAATTAAACACAGTTGCCTATGCCCTT | 1.59 |
| TGAAAGTCAACAAGATTCCTTGAGCATTCC | -1.16 |
| TGGTGGCAATGTGTCAGAGAAGGAGCCAGA | -1.15 |
| CAGGTGAGAGGCCTCTAAGCATAACTGGTT | -1.06 |
| CCCCAGAGGTGGAATCTATAGAGGCAGTGA | -1.16 |
| ACCTTTGTTCACATTTGTGCTCAGCCAACA | -0.562 |
| CCTATGGTATGTATGGAATGTCACTTTCTG | 1.93 |
| CAGAGACATGCTAGCCTCGAGATAACCCAC | -0.938 |
| AATGACAGTGTCAGGACCTTGCTCCTGTTC | 1.28 |
| GGGCTAACGCTGCTGTCTGTCTTCGGGCGG | -0.123 |
| ATAGGCACATATTGGATCTCTGGTATTTTG | 1.59 |
| CAAAATCGCCACTACAAAGGGAATCAGGTT | -0.856 |
| ACCCAGATAGGCAAAGTGGCTAGGACCTTT | 2.25 |
| ATGCGTCATCCGCATCTGAAGATAAGAGAA | -1 |
| TTTTACAGACAGGCATGACAGAGTGTCCTG | 0.738 |
| ACCTCTGTAATAACTGCAGTGCCACTCGGG | 0.363 |

| Sequence | binding signal (log2 normalized intensity) |
| --- | --- |
| TTCCGCGGACGTGTTCCCACAGTGCCCTCT | 3.37 |
| CTGCCACATTTTTATCCTTTTTTGAAGGTT | 2.23 |
| TTCACCTTTGTCCTCTCTCCCACAAGGGCA | 2.31 |
| TGCGGAATGACATTCAGCAACTGGGTTCAG | 1.01 |
| GGGGTCAAAGTCCCCTGAGCTTGAGTCCAT | 5.36 |
| TCCTGACAATTGGCCAAAGTTCAGTAAATC | 3.08 |
| ACTTTGCCTTTTGGCTAAAGTCCAAATTCC | 5.14 |
| AAACCTTTGCCCCACTCTCCTCTGCCACTG | 2.63 |
| ATCCTGCTAGCAGCTCTCTCCCTTATCTGA | -1.07 |
| CGAACTAGCTTGGTGCAGGGGCGGGGCCGC | -1.06 |
| GCGTGAGCCACCGCGCCCCGCCCCCAGTGC | 5.65 |
| GGTATGCATGGAATGCAGGAGATCCAGTAG | -0.65 |
| TGAAATGGTTACAAAGGTCACACTCCTGTG | 4.16 |
| GTTCACTTGCCAAGCCTAGTTTTGATTATC | -0.813 |
| CTTAAGACCTAGATGGAATGTTGTGTCTTC | 0.882 |
| CTAGTTAAGTCACTGGGCTGATGACCTTTG | 6.19 |
| CCTCCAGGGAGGGGAGAGGGGGTTAAAGGT | 1.22 |
| CATTCCACAGCAGAGGAGCCCTGGGCTCAG | -1.09 |
| ATCGCCTAGTACTCCTGCCCCTGTGCAATA | 2.67 |
| CAGGTGTAACAGTTGCAGCTTCAGGAGCTG | -1.23 |
| TGTATACTTATGTAGAAAGATATCTCTGTG | 0.374 |
| AGGGAGACAAAGTGTCACAAACTATCAGTG | -1.18 |
| TGGTAAGCAGACCCCTACTGGGGATGGACT | 1.94 |
| TCTTGGGTCAAAGTCTCTGGTACAAAATTA | 2.41 |
| AGGTCGCAAGCACTGGCTCTGGGGTCAAAG | 3.1 |

| Sequence | binding signal (log2 normalized intensity) |
| --- | --- |
| AGTCCAGAACCTGGAACCTAGAGGCCTTTC | -1.05 |
| CTGGTGGACTTTGCTCTGCTCATTTTTCCC | 4.96 |
| TGCAATTCTCTTTGCCAAAGCATAGCAAGA | -1.28 |
| TTCTAAAGAACATTCCAGCTTTGAAGTGCT | -1.09 |
| AAAAACAACTAAAGGAATGCGCCTGAACTG | -1.15 |
| TACTTGAACCCTACTCATAATTGCTATGTC | 0.51 |
| TCTGCAGCAGATGGCCAGCCTTTGGACTTT | 7.15 |
| AGTAGCTCACAAATACTCACCCTTGGATTA | 0.457 |
| CCAAGGCTGAAGGTCTCGAGGCCTCTTTAT | -0.871 |
| CTGATCAAAGGTCATTGGTATTGATAGCGC | 4.8 |
| CCAATGTGGAGCTGCTGAACTATTGAACCA | 2.66 |
| CCTGTGTGCATGGAGTGCACTGTGATCTTT | 3.48 |
| TAGAATGGAACTGAAGGCAGGAAAGGGCCT | -0.886 |
| AAACGGATGCAAAGGCTGAGCCCTTATCTT | -1.12 |
| AGTTGTTCAAAGTCCATGTGTTAAATAATA | 3.49 |
| GGAATTCTCTTCCCAACAGGAGATTACTTC | -1.16 |
| TGAAGACACTGAGGAAAAGCTGTCTACAAA | -0.747 |
| ACAGGTTGGAGACGCAGAGAAGCACTGCAG | -1.09 |
| CTTTACCACCCTCACAGCTCAATCCAACAA | -1.01 |
| AGAAGGGGACAAGCACATTAGGAGGAAAAA | -1.11 |
